# Results from a collection of fitness landscapes (doi:10.1016/j.celrep.2020.107928).
# The full ranking holds about 81,000 sequences; the median of “one-hybrid fitness for binding NBS DNA” is about -0.1, and the highest 2% start at about 0.36. The list shows a part of the results.
# B1: Caulobacter ParB omega fusion; a variant is named by its letters at X, in order, B8GW30 (parent)
# chain: MESVVVGEPGMSEGRRGLGRGLSALLGEVDAAPAQAPGEQLGGSREAPIEILQRNPDQPRRTFREEDLEDLSNSIREKGVLQPILVRPSPDTAGEYQIVAGERAWRAAQRAGLKTVPIMVRELDDLAVLEIGIIENVQRADLNVLEEALSYKVLMEKFERTQENIAQTIGKSXSHVANXMRLLXLPDEVQSYLVSGELTAXHARAIAAAADPVALAKQIIEGGLSVRETEALARKAPNLSAGKSKGGRPPRVKDTDTQALESDLSSVLGLDVSIDHRGSTGTLTITYATLEQLDDLCNRLTRGI
# Variants of: B1
# Assay: one-hybrid fitness for binding NBS DNA (the Noc-binding site; scaled: cognate 1, non-cognate 0); higher = stronger binding
# Conditions: with NBS DNA site
# Procedure, shortened: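 Fitness here means the log change in variant-to-wild-type read ratio between plasmids sequenced before and after selection. That scale was set so cognate equals 1 and non-cognate equals 0. The selection was a bacterial one-hybrid screen of Caulobacter ParB libraries, four specificity codons randomised, in E. coli USO carrying a HIS3 reporter with the site 19 bp from the promoter, grown 48 hours at 37°C on M9-minus-histidine with 0.1 mM IPTG and 5 mM 3-AT.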
row,Variant,one-hybrid fitness for binding NBS DNA
1,RCRL,≤ 0.2
2,RSCV,≤ 0.2
3,EMMS,≤ 0.2
4,HKMC,≤ 0.2
5,WRKY,≤ 0.2
6,DSKG,≤ 0.2
7,MVAR,≤ 0.2
8,EYQT,≤ 0.2
9,VMSG,≤ 0.2
10,EGMA,≤ 0.2
11,FIIS,≤ 0.2
12,QATY,≤ 0.2
13,ESPP,≤ 0.2
14,WWKT,≤ 0.2
15,RNKE,≤ 0.2
16,RQKF,≤ 0.2
17,RYFR,0.241
18,RQQP,≤ 0.2
19,RTRS,0.651
20,IRVM,≤ 0.2
21,RWRM,≤ 0.2
22,PKTD,≤ 0.2
23,EVNR,≤ 0.2
24,QQIA,≤ 0.2

row,Variant,one-hybrid fitness for binding NBS DNA
1,QLEN,≤ 0.2
2,RWTT,≤ 0.2
3,VPRD,≤ 0.2
4,CSRG,≤ 0.2
5,NCAL,≤ 0.2
6,FIPT,≤ 0.2
7,WSPV,≤ 0.2
8,PQYC,≤ 0.2
9,QRWD,≤ 0.2
10,MNAR,≤ 0.2
11,NHKA,≤ 0.2
12,QDTL,≤ 0.2
13,DMGG,≤ 0.2
14,CCPH,≤ 0.2
15,YNKG,≤ 0.2
16,RIMT,0.283
17,IVVG,≤ 0.2
18,AQRP,≤ 0.2
19,CGDK,≤ 0.2
20,VWAS,≤ 0.2
21,WKDY,≤ 0.2
22,ESFE,≤ 0.2
23,CLLM,≤ 0.2
24,LLQQ,≤ 0.2

row,Variant,one-hybrid fitness for binding NBS DNA
1,FPCT,≤ 0.2
2,WNDG,≤ 0.2
3,VYCN,≤ 0.2
4,RMPA,≤ 0.2
5,NWMT,≤ 0.2
6,DFSL,≤ 0.2
7,RVTN,≤ 0.2
8,PALI,≤ 0.2
9,YQMS,≤ 0.2
10,VIPM,≤ 0.2
11,KPKY,≤ 0.2
12,NEMR,≤ 0.2
13,RVQK,≤ 0.2
14,DQVS,≤ 0.2
15,SWRW,≤ 0.2
16,LHSA,≤ 0.2
17,AYAE,≤ 0.2
18,RFMI,≤ 0.2
19,CRPG,≤ 0.2
20,NYLI,≤ 0.2
21,QHPA,≤ 0.2
22,SNIR,≤ 0.2
23,RWPD,≤ 0.2
24,QFIA,≤ 0.2

row,Variant,one-hybrid fitness for binding NBS DNA
1,RKRE,≤ 0.2
2,IKLD,≤ 0.2
3,LAYY,≤ 0.2
4,PCAG,≤ 0.2
5,LYHY,≤ 0.2
6,NKRR,0.235
7,RAEW,≤ 0.2
8,SDSY,≤ 0.2
9,WREC,≤ 0.2
10,CYAS,≤ 0.2
11,IHHS,≤ 0.2
12,IMPL,≤ 0.2
13,HEWT,≤ 0.2
14,APQE,≤ 0.2
15,ERGC,≤ 0.2
16,CGNV,≤ 0.2
17,QLTE,≤ 0.2
18,LQTI,≤ 0.2
19,CHES,≤ 0.2
20,RQIG,≤ 0.2
21,MYVG,≤ 0.2
22,TRQA,≤ 0.2
23,KAFT,≤ 0.2
24,LVNE,≤ 0.2

row,Variant,one-hybrid fitness for binding NBS DNA
1,QAWF,≤ 0.2
2,DNCR,≤ 0.2
3,RGNI,≤ 0.2
4,GWAR,≤ 0.2
5,TCVM,≤ 0.2
6,WHNL,≤ 0.2
7,YPFG,≤ 0.2
8,GQVS,≤ 0.2
9,QDQG,≤ 0.2
10,RNTS,0.3
11,TQQW,≤ 0.2
12,PNQS,≤ 0.2
13,TPTY,≤ 0.2
14,TCMC,≤ 0.2
15,VSQG,≤ 0.2
16,FCRM,≤ 0.2
17,PCTR,≤ 0.2
18,KIAG,≤ 0.2
19,CWPI,≤ 0.2
20,SMTN,≤ 0.2
21,LVYC,≤ 0.2
22,LHNC,≤ 0.2
23,FCKS,≤ 0.2
24,AASF,≤ 0.2

row,Variant,one-hybrid fitness for binding NBS DNA
1,HAPV,≤ 0.2
2,TFTM,≤ 0.2
3,THQF,≤ 0.2
4,ANID,≤ 0.2
5,LSCR,≤ 0.2
6,RVHD,≤ 0.2
7,ACLS,≤ 0.2
8,VYTQ,≤ 0.2
9,LMDT,≤ 0.2
10,EKNM,≤ 0.2
11,AIKD,≤ 0.2
12,YECV,≤ 0.2
13,SARA,≤ 0.2
14,KFKT,≤ 0.2
15,LCDD,≤ 0.2
16,IRNK,≤ 0.2
17,AFGC,≤ 0.2
18,SSVV,≤ 0.2
19,RAAD,≤ 0.2
20,LWSF,≤ 0.2
21,FGPC,≤ 0.2
22,APHI,≤ 0.2
23,EVTI,≤ 0.2
24,FEEG,≤ 0.2

row,Variant,one-hybrid fitness for binding NBS DNA
1,LLSP,≤ 0.2
2,YDRR,≤ 0.2
3,SLYF,≤ 0.2
4,KTNS,≤ 0.2
5,VQYV,≤ 0.2
6,HPSM,≤ 0.2
7,QHKF,0.297
8,DLQS,≤ 0.2
9,ADYV,≤ 0.2
10,TITS,≤ 0.2
11,ICGR,≤ 0.2
12,LNRC,≤ 0.2
13,QVLT,≤ 0.2
14,TPPE,≤ 0.2
15,YAVG,≤ 0.2
16,ISTG,≤ 0.2
17,PTRF,≤ 0.2
18,MIRT,≤ 0.2
19,QSVP,≤ 0.2
20,FQFL,≤ 0.2
21,VAHW,≤ 0.2
22,MPPE,≤ 0.2
23,SQRS,≤ 0.2
24,HYPT,≤ 0.2

row,Variant,one-hybrid fitness for binding NBS DNA
1,NHYI,≤ 0.2
2,RHEH,≤ 0.2
3,SKIG,≤ 0.2
4,ALVE,≤ 0.2
5,THLR,≤ 0.2
6,CLGE,≤ 0.2
7,EGLC,≤ 0.2
8,ELQE,≤ 0.2
9,YIRH,≤ 0.2
10,VFPR,≤ 0.2
11,EMFR,≤ 0.2
12,TLTN,≤ 0.2
13,RTFW,≤ 0.2
14,ELAG,≤ 0.2
15,YTLC,≤ 0.2
16,ARSK,≤ 0.2
17,YAGW,≤ 0.2
18,FKRG,≤ 0.2
19,RCMY,≤ 0.2
20,YTNR,≤ 0.2
21,KGQY,≤ 0.2
22,YASY,≤ 0.2
23,GETQ,≤ 0.2
24,RFGK,≤ 0.2

row,Variant,one-hybrid fitness for binding NBS DNA
1,RVPC,≤ 0.2
2,ANHC,≤ 0.2
3,CYTD,≤ 0.2
4,TMHW,≤ 0.2
5,FMTC,≤ 0.2
6,AYIS,≤ 0.2
7,KGTW,≤ 0.2
8,SGMD,≤ 0.2
9,TNRG,≤ 0.2
10,WMQT,≤ 0.2
11,LPMS,≤ 0.2
12,PERG,≤ 0.2
13,KYKF,≤ 0.2
14,MMKN,≤ 0.2
15,PSPI,≤ 0.2
16,LYQE,≤ 0.2
17,YIHY,≤ 0.2
18,RRHV,0.314
19,QFPM,≤ 0.2
20,LGVM,≤ 0.2
21,SRNK,≤ 0.2
22,VEQR,≤ 0.2
23,PPMN,≤ 0.2
24,PCIS,≤ 0.2

row,Variant,one-hybrid fitness for binding NBS DNA
1,TCWR,≤ 0.2
2,SPRA,≤ 0.2
3,NCMS,≤ 0.2
4,EKDF,≤ 0.2
5,SPCC,≤ 0.2
6,TKMN,≤ 0.2
7,MPNL,≤ 0.2
8,PTVR,≤ 0.2
9,KAYG,≤ 0.2
10,VNNF,≤ 0.2
11,LVWH,≤ 0.2
12,RNIL,≤ 0.2
13,NMSI,≤ 0.2
14,HMML,≤ 0.2
15,YFTR,≤ 0.2
16,VMKR,0.208
17,GLSW,≤ 0.2
18,NVNA,≤ 0.2
19,WHLT,≤ 0.2
20,NAGY,≤ 0.2
21,LVPF,≤ 0.2
22,QRRT,0.863
23,WSEI,≤ 0.2
24,QAHK,≤ 0.2

row,Variant,one-hybrid fitness for binding NBS DNA
1,SRQQ,≤ 0.2
2,RIHI,≤ 0.2
3,HEKF,≤ 0.2
4,MWAR,≤ 0.2
5,NSSM,≤ 0.2
6,ALQC,≤ 0.2
7,GHLA,≤ 0.2
8,ITTC,≤ 0.2
9,PTYC,≤ 0.2
10,DPRY,≤ 0.2
11,HTYR,≤ 0.2
12,RIAD,≤ 0.2
13,HQVC,≤ 0.2
14,TPPR,≤ 0.2
15,INMN,≤ 0.2
16,GTSH,≤ 0.2
17,IQGC,≤ 0.2
18,SALP,≤ 0.2
19,DVPF,≤ 0.2
20,DTAF,≤ 0.2
21,HDNA,≤ 0.2
22,MQHG,≤ 0.2
23,APVM,≤ 0.2
24,PLQQ,≤ 0.2

row,Variant,one-hybrid fitness for binding NBS DNA
1,KWLA,≤ 0.2
2,MSGG,≤ 0.2
3,FAGG,≤ 0.2
4,TIPY,≤ 0.2
5,THYI,≤ 0.2
6,RVCN,≤ 0.2
7,PCYC,≤ 0.2
8,NNWS,≤ 0.2
9,TTFP,≤ 0.2
10,SAFS,≤ 0.2
11,HIRV,≤ 0.2
12,RNIT,≤ 0.2
13,GMCS,≤ 0.2
14,VMTL,≤ 0.2
15,NRTF,≤ 0.2
16,TDPV,≤ 0.2
17,GIKA,≤ 0.2
18,GCHI,≤ 0.2
19,EQTA,≤ 0.2
20,KAQC,≤ 0.2
21,PGPV,≤ 0.2
22,PPDI,≤ 0.2
23,QMHF,≤ 0.2
24,PMHA,≤ 0.2

row,Variant,one-hybrid fitness for binding NBS DNA
1,RTFR,0.441
2,VHNY,≤ 0.2
3,HYCR,≤ 0.2
4,SHPN,≤ 0.2
5,RMPN,≤ 0.2
6,VIEL,≤ 0.2
7,HHYR,≤ 0.2
8,VIYS,≤ 0.2
9,RQDW,≤ 0.2
10,EPNM,≤ 0.2
11,KHPS,≤ 0.2
12,KRAA,0.312
13,RNGN,≤ 0.2
14,QCFR,0.517
15,FVYS,≤ 0.2
16,EKTS,≤ 0.2
17,ITRS,≤ 0.2
18,DMVT,≤ 0.2
